# Measurements published in publication PMC4336329 (PLoS ONE, 2015).
# About 14,000 (4.5%) of roughly 310,000 compounds showed an effect of 50% or more. The effect is printed as a negative number. Some of the results follow.
# Molecular target: human ether-à-go-go-related gene (hERG) potassium channel (human, UniProt Q12809)
# Test: primary screen, population patch clamp on CHO cells stably expressing hERG
# 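Also: peak tail current of the secondary pulse compared with the same well before compound.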
# human ether-à-go-go-related gene (hERG) potassium channel, sequence (Q12809 whole entry, looked up): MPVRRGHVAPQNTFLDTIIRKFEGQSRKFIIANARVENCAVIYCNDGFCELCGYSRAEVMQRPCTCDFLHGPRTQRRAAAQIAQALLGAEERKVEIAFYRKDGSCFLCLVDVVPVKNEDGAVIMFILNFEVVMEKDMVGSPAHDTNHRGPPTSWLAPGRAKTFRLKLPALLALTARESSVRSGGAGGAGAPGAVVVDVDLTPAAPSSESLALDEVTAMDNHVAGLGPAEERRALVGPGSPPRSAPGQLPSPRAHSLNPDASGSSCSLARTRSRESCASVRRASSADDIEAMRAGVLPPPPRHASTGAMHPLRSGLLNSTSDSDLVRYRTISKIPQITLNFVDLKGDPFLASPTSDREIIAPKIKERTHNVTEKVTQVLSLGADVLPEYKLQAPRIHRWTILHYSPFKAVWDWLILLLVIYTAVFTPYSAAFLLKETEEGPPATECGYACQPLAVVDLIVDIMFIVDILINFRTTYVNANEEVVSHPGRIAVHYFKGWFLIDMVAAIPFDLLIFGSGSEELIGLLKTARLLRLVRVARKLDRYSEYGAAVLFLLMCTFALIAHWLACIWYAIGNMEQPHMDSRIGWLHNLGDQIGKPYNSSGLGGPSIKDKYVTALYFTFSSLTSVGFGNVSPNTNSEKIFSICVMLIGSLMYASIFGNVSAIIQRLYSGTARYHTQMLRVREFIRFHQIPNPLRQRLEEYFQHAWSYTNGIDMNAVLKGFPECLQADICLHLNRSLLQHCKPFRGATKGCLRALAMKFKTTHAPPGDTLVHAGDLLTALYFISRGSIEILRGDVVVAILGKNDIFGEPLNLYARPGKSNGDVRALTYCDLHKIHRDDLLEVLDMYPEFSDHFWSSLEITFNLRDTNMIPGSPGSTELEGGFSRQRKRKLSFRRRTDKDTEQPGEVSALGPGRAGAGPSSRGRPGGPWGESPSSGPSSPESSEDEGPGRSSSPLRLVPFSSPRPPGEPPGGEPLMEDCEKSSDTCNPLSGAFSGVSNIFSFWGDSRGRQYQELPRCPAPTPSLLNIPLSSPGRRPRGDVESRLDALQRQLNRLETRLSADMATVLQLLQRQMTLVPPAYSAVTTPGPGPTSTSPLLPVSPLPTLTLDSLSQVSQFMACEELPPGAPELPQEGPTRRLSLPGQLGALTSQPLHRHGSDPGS
row,Compound,"hERG current change (%, negative = inhibition) at 10uM"
1,COC(=O)NC1CSCC1OC(=O)c1ccc(Br)cc1 (stereo not shown),-15.7%
2,COc1ccc(N2CCc3c(C)nc4c(OC)cc(OC)cc4c32)c(OC)c1,-75.3%
3,COc1ccccc1NC(=O)CSc1nncn1N,6.36%
4,O=S(=O)(Nc1ccccn1)c1ccc(C(F)(F)F)cc1Cl,13.9%
5,COc1ccc(-c2cc(C(=O)NCCN3CCOCC3)c3cc(C(C)C)ccc3n2)cc1,17.2%
6,O=[N+]([O-])c1cc(C(F)(F)F)cc([N+](=O)[O-])c1NCc1cccnc1,-43.3%
7,CCn1c(CNC(=O)COC)nc2ccccc21,-4.87%
8,Cc1ccc2oc3c(c(=O)c2c1)C(c1cccc(Cl)c1)N(CCCN1CCOCC1)C3=O (stereo not shown),-38.2%
9,COc1ccc(/C=C/C(=O)OCC(=O)c2ccc(S(=O)(=O)N3CCCCC3)cc2)cc1OC,10.2%
10,COc1ccc(-c2ccc(Nc3ccc(C(=O)N4CCOCC4)cc3)nn2)cc1OC,-5.3%
11,Cc1ccc2oc(=O)c3cnn(CC(=O)NC4CCCCC4C)c3c2c1 (stereo not shown),8.43%
12,CCn1cc(/C=N\NC(=O)c2c[nH]c3ccccc23)c(C)n1,-5.79%
13,CC[C@H](C)[C@H](NS(=O)(=O)c1ccc(C)cc1)C(=O)N1CCC(C(=O)N[C@@H](C)C(=O)O)CC1,19.2%
14,C[N+]1(CCNC(=O)/C=N/O)CCCCC1.[I-],17.6%
15,CN(C)c1ccc(-c2cccc(C3CC=CC4C3C(=O)N(Cc3ccccc3)C4c3ccc4ccccc4c3)c2)cc1 (stereo not shown),17.5%
16,CCS(=O)(=O)N1CCN(C(=O)c2ccccc2)CC1,1.59%
17,CN(C)C(/C=C/Nc1ccc(O)cc1)=C(C#N)C#N,14.7%
18,Cc1ccc(CSc2nnc3nc(C)cc(C)n23)cc1,-13.5%
19,Cc1ccc(Cn2nc3c(cc2=O)CCc2ccccc2-3)cc1,-10.8%
20,Cc1cc(C)c2c(=O)[nH]n(C3CCCCCC3)c2n1,23.5%
21,O=C(/C=C/c1ccccc1)Oc1cccc(C(=S)N2CCOCC2)c1,25.2%
22,O=C(c1ccc(-c2ccccc2Cl)o1)N1CCN(S(=O)(=O)c2cccs2)CC1,15.9%

row,Compound,"hERG current change (%, negative = inhibition) at 10uM"
1,CCOC(=O)C1=C(C)NC(SCC(N)=O)=C(C#N)C1c1cccs1 (stereo not shown),-13.2%
2,Cc1nnc(SCC(=O)NC2CCS(=O)(=O)C2)n1Cc1ccccc1 (stereo not shown),24.6%
3,O=C(CNC(=O)c1ccc(Cl)cc1)NC1CCCCC1,16.3%
4,COC(=O)c1[nH]c2cc(OC)ccc2c1NC(=O)CN1CCC(C(N)=O)CC1,16.7%
5,CC(C)(CNC(=O)c1ccccc1F)CNC(=O)c1ccccc1F,6.78%
6,CCOC(=O)c1c(-c2ccccc2)csc1NC(=O)CCN1CCOCC1.O=C(O)C(=O)O,-33.2%
7,Cc1ccc(N2C(=S)NC3c4ccccc4OC2(C)C3C(=O)N(C)C)cc1 (stereo not shown),20.6%
8,OCc1cn(-c2ccccc2)nc1-c1ccc2c(c1)OCCO2,5.83%
9,COc1ccc(N2CC(C(=O)N3CCN(c4ccccc4OC)CC3)CC2=O)cc1 (stereo not shown),1.8%
10,Cc1cc(N/N=C/c2cccc([N+](=O)[O-])c2)nc(-n2nc(C)cc2C)n1,8.28%
11,CCOc1cccc(NC(=O)CSc2nc(C)c3c(c2C#N)CCCC3)c1,0.331%
12,CC(C)(C)NC(=O)C(c1ccncc1)N(Cc1cccs1)C(=O)Cn1nnc(-c2ccc(F)cc2)n1 (stereo not shown),-39.8%
13,CCOC(=O)c1cc(CC)sc1NC(=O)Cc1ccsc1,1.53%
14,O=Cc1nc(-c2ccccc2Cl)n2ccccc12,-10%
15,COc1cc(/C=N/NC(=O)CCN2CCN(C)CC2)cc2c1OCO2,11.4%
16,O=c1ccc(S(=O)(=O)N2CCCC2)cn1Cc1nc(-c2ccccc2)no1,-12.7%
17,Cc1nn(C)c(C(=O)Nc2c(C)nn(Cc3c(F)c(F)c(F)c(F)c3F)c2C)c1Br,2.48%
18,Cc1ccc(OCC(=O)N/N=C\c2ccc(O)cc2)c([N+](=O)[O-])c1,28.7%
19,O=C(Oc1ccc(-c2nnco2)cc1)N1CCOCC1,1.23%
20,O=S(=O)(c1ccccc1Br)N1CCN(c2ncccn2)CC1,0.297%
21,Cc1ccc(-c2nnc3ccc(SCC(=O)Nc4cc(C)on4)nn23)cc1,-10.4%
22,CCn1ncc(C2=NOC(C(=O)Nc3cccc(O)c3)C2)c1C (stereo not shown),7.13%

row,Compound,"hERG current change (%, negative = inhibition) at 10uM"
1,Nc1nnn(CC(=O)N/N=C/c2ccc(O)cc2)n1,44.9%
2,Cc1nn(-c2ccccc2)c(N2CCCC2)c1/C=N/NC(=S)Nc1cc(C(F)(F)F)ccc1Cl,5.21%
3,O=C(N/N=C/c1ccccc1[N+](=O)[O-])c1ccncc1,13.7%
4,CCC(C(=O)O)n1c(C(F)(F)F)nc2ccccc21 (stereo not shown),14.5%
5,Cc1ccc2nc(-c3cccc(S(=O)(=O)N(C)C)c3)cn2c1,8.22%
6,Cc1ccc(S(=O)(=O)CCc2nnc(NC(=O)c3ccco3)s2)cc1,12.2%
7,COC(=O)c1cccc(N2C(=O)C3C4C=CC(CC4)C3C2=O)c1 (stereo not shown),3.99%
8,CCC(=O)Nc1ccc(Cl)c(NC(=O)c2c(OC)cccc2OC)c1,1.56%
9,CCn1c2ccccc2c2cc(NC(=O)c3cccc([N+](=O)[O-])c3C)ccc21,7.76%
10,NS(=O)(=O)c1ccc(CCNC(=O)c2cc(-c3ccc(Br)cc3)nc3ccccc23)cc1,12.1%
11,Br.Cc1ccc(C(=O)CSc2nc3ccccc3o2)cc1,9.69%
12,C[C@@H](CSc1ccccc1)CN1CC[C@H](O)CCC1=O,9.95%
13,CN(c1ccccc1)S(=O)(=O)c1cc(C(=O)NCCCn2ccnc2)ccc1Cl,-60.3%
14,Cc1cc(C(=O)OCC(=O)NCCc2ccccc2)c(C)o1,-7.25%
15,COc1ccc(/C=C2\CCCC3C2=NN(C(=O)CSc2n[nH]c(N)n2)C3c2ccc(OC)cc2)cc1 (stereo not shown),23.8%
16,CCCc1cc(=O)oc2cc(C)cc(OCC(=O)NCCN3CCOCC3)c12,6.05%
17,CN(CC(=O)Nc1ccc(Cl)cc1)C1=NS(=O)(=O)c2ccccc21,10.5%
18,COc1cccc(CNC(=O)CSCC(=O)Nc2cc(C)on2)c1,13.9%
19,CCN1CCN(C(=O)CSCc2nc(-c3ccc(OC)c(OC)c3)oc2C)CC1,-31.9%
20,CC(C)N1CC(C(=O)Nc2ccc(C#N)cc2)CC1=O (stereo not shown),2.45%
21,NC(=S)N/N=C/c1ccc(-c2ccc(Cl)c(Cl)c2)o1,7.09%
22,COC(=O)N/N=C/c1cn(Cc2ccccc2Cl)c2ccccc12,12.6%

row,Compound,"hERG current change (%, negative = inhibition) at 10uM"
1,Cc1cccn2c(=O)c(/C=C(\C#N)C(=O)NC3CCS(=O)(=O)C3)c(N3CCC(C)CC3)nc12 (stereo not shown),-33.5%
2,Cn1ccnc1Sc1ccc(/C=N/NC(=O)c2ccccc2O)cc1[N+](=O)[O-],-7.21%
3,CN(CC(=O)Nc1cccc(F)c1)C(=O)CCNC(=O)c1ccco1,16.7%
4,Cn1c(C(=O)O)cc2cc(Oc3ccccc3)ccc21,6.78%
5,CC(=O)c1ccc(-c2ccc(C(=O)NCC3CCCO3)o2)cc1 (stereo not shown),-50.5%
6,OC1/C(=C/c2ccccc2F)N2CCC1CC2 (stereo not shown),10.5%
7,COc1ccc(NC(=O)CSc2ccc(-c3sc(C)nc3C)nn2)cc1,14.4%
8,CCOC(=O)c1cc(-c2c(Cl)cccc2Cl)no1,11.2%
9,C/C=C(\CS(=O)(=O)c1ccccc1)S(=O)(=O)c1ccccc1,-1.47%
10,Cc1occc1C(=O)N1CCN(S(C)(=O)=O)CC1,7.58%
11,CSCC(C)N1CCC(CO)(CCc2ccccc2)CC1 (stereo not shown),-29.4%
12,CCn1cc(S(=O)(=O)Nc2ccc3c(c2)OCCO3)cn1,35.4%
13,Cc1nc(C)c(-c2csc(Nc3ccc(O)cc3C)n2)s1,-3.69%
14,COc1cc2ccccc2cc1C(=O)OCC(=O)N(C)c1c(N)n(Cc2ccccc2)c(=O)[nH]c1=O,3.29%
15,Cc1cc(C(=O)N/N=C/c2cc(Br)cc([N+](=O)[O-])c2O)c2ccccc2n1,-5.48%
16,Cc1ccc(C)c(S(=O)(=O)N2CCN(CC(=O)N3CCc4ccccc4C3)CC2)c1.O=C(O)C(=O)O,-25.9%
17,CC(Nc1cc(=O)n(C)c(=O)[nH]1)c1ccccc1 (stereo not shown),8.44%
18,Cl.O=C(CN1CCN(C2CCCCC2)CC1)NCCC1=CCCCC1,-39.8%
19,CCc1cc(SC#N)cc(C)c1N,7.52%
20,COc1ccc(S(=O)(=O)Nc2c(C)n(C)n(-c3ccccc3)c2=O)cc1,-2.18%
21,Cn1cc(CCC(=O)NCc2cccc(Cl)c2)c2ccccc21,-4.57%
22,O=C1C2C3C=CC(C2C(=O)N1c1cccc(O)c1)C1C2C(=O)N(c4cccc(O)c4)C(=O)C2C31 (stereo not shown),6.6%
